No constants are given. Whether binding was seen depends on the method and setting. For some assays here: Binding seen in cells or lysates may run through a third protein. Some binding calls cover weakened binding; strength is not graded here. For some assays here: Where a sequence is shown, tags or fusion partners need not be part of it. Values belong to the molecule of their own block, whether it stands above or below them.
Tests used:
[1] = biological target: T1, Ets-like protein-1 (Elk-1), endogenous in MB-231 cells (human (endogenous in MB-231)) (UniProt P19419); assay: Re-ChIP (sequential chromatin immunoprecipitation); MB-231 chromatin pulled down with anti-Elk-1 and then anti-MZF-1 antibodies, and in the reverse order; PCR of the PKCα promoter
T1 sequence: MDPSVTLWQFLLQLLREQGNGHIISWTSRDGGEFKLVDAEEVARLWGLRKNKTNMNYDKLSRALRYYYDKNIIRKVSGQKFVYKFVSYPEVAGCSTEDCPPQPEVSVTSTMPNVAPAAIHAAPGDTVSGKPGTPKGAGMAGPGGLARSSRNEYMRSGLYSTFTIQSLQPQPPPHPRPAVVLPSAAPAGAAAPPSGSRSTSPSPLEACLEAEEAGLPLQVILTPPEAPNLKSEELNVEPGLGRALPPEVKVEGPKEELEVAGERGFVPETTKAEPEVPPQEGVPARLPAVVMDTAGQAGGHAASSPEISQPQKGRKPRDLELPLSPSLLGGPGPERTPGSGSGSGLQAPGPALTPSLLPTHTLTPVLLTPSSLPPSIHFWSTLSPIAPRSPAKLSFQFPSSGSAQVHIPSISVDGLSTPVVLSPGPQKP

Sequences of proteins named here, by UniProt entry; tags and fusion partners are left off. A change or cut given only in a name is not applied to a line headed by its entry. A line that says so, or that is headed by a name, gives the form on record, which may keep a tag or linker. Residues count along the entry.
UniProt P28698: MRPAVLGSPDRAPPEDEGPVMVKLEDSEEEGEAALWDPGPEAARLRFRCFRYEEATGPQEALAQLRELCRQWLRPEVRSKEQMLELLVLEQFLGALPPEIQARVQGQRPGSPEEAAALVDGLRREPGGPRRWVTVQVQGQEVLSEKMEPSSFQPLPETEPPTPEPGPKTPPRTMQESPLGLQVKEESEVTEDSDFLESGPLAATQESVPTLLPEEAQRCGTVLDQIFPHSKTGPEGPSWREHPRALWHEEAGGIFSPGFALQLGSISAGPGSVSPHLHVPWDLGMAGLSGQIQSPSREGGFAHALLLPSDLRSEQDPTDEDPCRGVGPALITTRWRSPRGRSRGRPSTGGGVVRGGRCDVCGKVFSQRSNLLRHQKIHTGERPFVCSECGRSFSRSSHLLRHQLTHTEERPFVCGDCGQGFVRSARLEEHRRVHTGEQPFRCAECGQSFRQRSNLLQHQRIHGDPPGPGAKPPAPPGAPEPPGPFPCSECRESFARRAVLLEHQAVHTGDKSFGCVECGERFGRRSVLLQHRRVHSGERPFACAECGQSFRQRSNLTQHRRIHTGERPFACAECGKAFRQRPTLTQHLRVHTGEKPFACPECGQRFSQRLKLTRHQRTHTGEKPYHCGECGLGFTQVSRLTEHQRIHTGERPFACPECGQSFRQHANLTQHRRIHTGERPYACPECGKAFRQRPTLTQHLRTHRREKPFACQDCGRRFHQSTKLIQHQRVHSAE
MZF-1_(73–485)-c-Myc fragment: residues 322-734 of P28698
MZF-1-c-Myc (full-length MZF-1) (P28698-2, form named): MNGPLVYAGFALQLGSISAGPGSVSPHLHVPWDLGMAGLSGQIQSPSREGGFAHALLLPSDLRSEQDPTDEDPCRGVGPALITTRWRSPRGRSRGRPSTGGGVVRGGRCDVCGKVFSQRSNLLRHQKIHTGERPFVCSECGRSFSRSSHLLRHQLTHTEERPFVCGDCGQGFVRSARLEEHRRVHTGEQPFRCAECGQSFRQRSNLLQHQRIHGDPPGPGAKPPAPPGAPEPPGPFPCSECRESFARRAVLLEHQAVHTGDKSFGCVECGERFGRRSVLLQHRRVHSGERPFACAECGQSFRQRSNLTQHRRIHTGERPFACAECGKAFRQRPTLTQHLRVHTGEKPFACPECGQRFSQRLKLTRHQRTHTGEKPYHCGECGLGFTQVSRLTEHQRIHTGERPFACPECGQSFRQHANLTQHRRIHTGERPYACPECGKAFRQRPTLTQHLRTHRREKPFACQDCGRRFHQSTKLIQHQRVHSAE
MZF-1_(1–141)-c-Myc fragment (P28698-2, form named): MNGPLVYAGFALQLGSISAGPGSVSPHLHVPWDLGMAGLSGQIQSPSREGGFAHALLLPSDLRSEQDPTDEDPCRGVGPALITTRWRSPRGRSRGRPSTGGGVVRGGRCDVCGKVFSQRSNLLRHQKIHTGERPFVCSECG
MZF-1_(1–72)-c-Myc fragment (P28698-2, form named): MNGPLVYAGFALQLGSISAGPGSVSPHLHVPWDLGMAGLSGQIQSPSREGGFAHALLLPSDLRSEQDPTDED
MZF-1_(1–60)-c-Myc fragment (P28698-2, form named): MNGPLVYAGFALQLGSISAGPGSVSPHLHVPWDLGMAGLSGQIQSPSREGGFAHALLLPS

[2] = biological target: T1, Ets-like protein-1 (Elk-1), endogenous in MB-231 cells (human (endogenous in MB-231)); assay: co-IP; endogenous proteins of MB-231 cells; extracts IP with anti-MZF-1 or anti-Elk-1 antibody or control rabbit IgG, IB with both antibodies sequentially
[3] = biological target: T2, Elk-1_(145–157)-c-Myc fragment (heparin-binding domain) (human); assay: co-IP; HEK-293 cells co-transfected with 5 μg of the FLAG-tagged full-length partner and a c-Myc-tagged protein or fragment; IP with c-Myc monoclonal antibody, IB with anti-FLAG
T2 sequence: LARSSRNEYMRSG

[4] = biological target: T3, Elk-1-c-Myc fragment, amino acids 87–428 (human) (UniProt P19419); assay: as above
T3 sequence: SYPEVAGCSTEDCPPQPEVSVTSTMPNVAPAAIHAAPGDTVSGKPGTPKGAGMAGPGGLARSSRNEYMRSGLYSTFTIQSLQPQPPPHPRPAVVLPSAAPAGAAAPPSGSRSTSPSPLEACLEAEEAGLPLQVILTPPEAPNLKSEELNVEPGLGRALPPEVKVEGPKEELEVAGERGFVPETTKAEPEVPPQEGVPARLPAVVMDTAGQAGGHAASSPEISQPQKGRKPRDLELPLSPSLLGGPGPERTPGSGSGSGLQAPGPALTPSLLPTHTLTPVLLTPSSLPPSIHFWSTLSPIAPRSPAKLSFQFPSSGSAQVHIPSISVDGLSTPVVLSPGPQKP

[5] = biological target: T4, mutant Elk-1-c-Myc fragment, amino acids 145–428 (R147, R150, R155 to alanine) (human) (UniProt P19419); assay: as above
T4 sequence: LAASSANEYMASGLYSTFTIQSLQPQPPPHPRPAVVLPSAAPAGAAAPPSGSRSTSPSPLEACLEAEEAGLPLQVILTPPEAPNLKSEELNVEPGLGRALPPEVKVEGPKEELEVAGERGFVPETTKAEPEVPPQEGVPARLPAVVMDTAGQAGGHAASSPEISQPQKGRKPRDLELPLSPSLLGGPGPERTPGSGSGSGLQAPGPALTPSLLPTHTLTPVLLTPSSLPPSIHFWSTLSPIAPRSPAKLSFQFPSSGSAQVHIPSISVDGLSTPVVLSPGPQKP

[6] = biological target: T5, Elk-1-c-Myc (amino acids 1–428) (human) (UniProt P19419); assay: as above
T5 sequence: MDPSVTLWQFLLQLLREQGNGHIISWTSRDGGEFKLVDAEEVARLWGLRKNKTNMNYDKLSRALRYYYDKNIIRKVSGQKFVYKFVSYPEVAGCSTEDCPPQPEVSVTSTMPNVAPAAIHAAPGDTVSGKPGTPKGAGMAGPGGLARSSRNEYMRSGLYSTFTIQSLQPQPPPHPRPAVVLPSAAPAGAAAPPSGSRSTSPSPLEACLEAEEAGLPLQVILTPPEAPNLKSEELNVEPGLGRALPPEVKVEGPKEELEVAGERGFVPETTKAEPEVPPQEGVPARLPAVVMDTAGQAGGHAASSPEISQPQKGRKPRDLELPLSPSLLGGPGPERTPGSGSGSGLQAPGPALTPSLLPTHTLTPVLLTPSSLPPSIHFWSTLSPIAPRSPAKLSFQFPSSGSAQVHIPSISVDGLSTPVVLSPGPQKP

[7] = biological target: T6, Elk-1-c-Myc fragment, amino acids 145–428 (human) (UniProt P19419); assay: as above
T6 sequence: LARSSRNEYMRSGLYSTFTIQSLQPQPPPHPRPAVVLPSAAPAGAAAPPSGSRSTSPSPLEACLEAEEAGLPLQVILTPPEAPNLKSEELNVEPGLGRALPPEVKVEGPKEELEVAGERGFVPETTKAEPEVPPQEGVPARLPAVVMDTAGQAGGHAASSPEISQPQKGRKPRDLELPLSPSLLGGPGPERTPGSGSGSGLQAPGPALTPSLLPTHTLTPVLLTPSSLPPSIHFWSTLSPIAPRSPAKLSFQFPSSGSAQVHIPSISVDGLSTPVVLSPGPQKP

[8] = biological target: T7, mutant Elk-1_(145–157)-c-Myc fragment (R147, R150, R155 to alanine) (human) (UniProt P19419); assay: as above
T7 sequence: LAASSANEYMASG

[9] = biological target: T8, Elk-1-c-Myc fragment, amino acids 87–325 (human) (UniProt P19419); assay: as above
T8 sequence: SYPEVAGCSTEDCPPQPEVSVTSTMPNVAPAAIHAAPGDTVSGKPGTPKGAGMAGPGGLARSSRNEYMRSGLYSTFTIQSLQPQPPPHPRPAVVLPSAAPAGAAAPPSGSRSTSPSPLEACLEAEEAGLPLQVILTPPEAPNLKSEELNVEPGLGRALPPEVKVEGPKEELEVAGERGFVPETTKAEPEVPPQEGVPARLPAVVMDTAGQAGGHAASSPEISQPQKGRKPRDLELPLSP

[10] = biological target: FLAG-MZF-1ΔDBD (deletion mutant lacking the C-terminal region) (human) (UniProt P28698); assay: co-IP; MB-231 cells transfected with 5 μg FLAG-MZF-1ΔDBD or Elk-1-c-MycΔDBD; IP with FLAG or c-Myc antibody, endogenous partner detected by IB
[11] = biological target: myeloid zinc finger 1 (MZF-1), endogenous in MB-231 cells (human (endogenous in MB-231)) (UniProt P28698); assay: co-IP; endogenous proteins of MB-231 cells; extracts IP with anti-MZF-1 or anti-Elk-1 antibody or control rabbit IgG, IB with both antibodies sequentially
[12] = biological target: MZF-1_(73–485)-c-Myc fragment (human) (UniProt P28698); assay: co-IP; HEK-293 cells co-transfected with 5 μg of the FLAG-tagged full-length partner and a c-Myc-tagged protein or fragment; IP with c-Myc monoclonal antibody, IB with anti-FLAG
[13] = biological target: MZF-1_(1–72)-c-Myc fragment (human) (UniProt P28698); assay: as above
[14] = biological target: MZF-1_(1–60)-c-Myc fragment (human) (UniProt P28698); assay: as above
[15] = biological target: MZF-1-c-Myc (full-length MZF-1) (human) (UniProt P28698); assay: as above
[16] = biological target: MZF-1_(1–141)-c-Myc fragment (human) (UniProt P28698); assay: as above
[17] = biological target: T9, MZF-1_(60–72)-c-Myc fragment (acidic domain) (human) (UniProt P28698); assay: as above
T9 sequence: SDLRSEQDPTDED

Molecule: myeloid zinc finger 1 (MZF-1), endogenous in MB-231 cells (from UniProt P28698 1-734)
- binding [1]: binds
- binding [2]: binds

B1: Ets-like protein-1 (Elk-1), endogenous in MB-231 cells (protein, UniProt P19419 1-428)
chain: MDPSVTLWQFLLQLLREQGNGHIISWTSRDGGEFKLVDAEEVARLWGLRKNKTNMNYDKLSRALRYYYDKNIIRKVSGQKFVYKFVSYPEVAGCSTEDCPPQPEVSVTSTMPNVAPAAIHAAPGDTVSGKPGTPKGAGMAGPGGLARSSRNEYMRSGLYSTFTIQSLQPQPPPHPRPAVVLPSAAPAGAAAPPSGSRSTSPSPLEACLEAEEAGLPLQVILTPPEAPNLKSEELNVEPGLGRALPPEVKVEGPKEELEVAGERGFVPETTKAEPEVPPQEGVPARLPAVVMDTAGQAGGHAASSPEISQPQKGRKPRDLELPLSPSLLGGPGPERTPGSGSGSGLQAPGPALTPSLLPTHTLTPVLLTPSSLPPSIHFWSTLSPIAPRSPAKLSFQFPSSGSAQVHIPSISVDGLSTPVVLSPGPQKP
- binding [10]: binds
- binding [11]: binds

Further lines, results first:

- binding [3]: binds
- binding [4]: binds
- binding [5]: no binding
- binding [6]: binds
- binding [7]: binds
- binding [8]: no binding
- binding [9]: binds
Molecule: FLAG-MZF-1 (full length, amino acids 1-485) (from UniProt P28698-2 1-485)

- binding [12]: no binding
- binding [13]: binds
- binding [14]: no binding
- binding [15]: binds
- binding [16]: binds
- binding [17]: binds
B2: FLAG-Elk-1 (full length, amino acids 1-428) (protein, UniProt P19419 1-428)
chain: MDPSVTLWQFLLQLLREQGNGHIISWTSRDGGEFKLVDAEEVARLWGLRKNKTNMNYDKLSRALRYYYDKNIIRKVSGQKFVYKFVSYPEVAGCSTEDCPPQPEVSVTSTMPNVAPAAIHAAPGDTVSGKPGTPKGAGMAGPGGLARSSRNEYMRSGLYSTFTIQSLQPQPPPHPRPAVVLPSAAPAGAAAPPSGSRSTSPSPLEACLEAEEAGLPLQVILTPPEAPNLKSEELNVEPGLGRALPPEVKVEGPKEELEVAGERGFVPETTKAEPEVPPQEGVPARLPAVVMDTAGQAGGHAASSPEISQPQKGRKPRDLELPLSPSLLGGPGPERTPGSGSGSGLQAPGPALTPSLLPTHTLTPVLLTPSSLPPSIHFWSTLSPIAPRSPAKLSFQFPSSGSAQVHIPSISVDGLSTPVVLSPGPQKP
